From publication PMC4336329 (PLoS ONE, 2015) come the findings set out here.

Each structure is given as a SMILES string. Out of some 310,000 compounds screened, about 2,200 (0.71%) showed an effect of 50% or more. The effect is printed as a negative number. Some of the results follow.

The target of the assay is human ether-à-go-go-related gene (hERG) potassium channel (human, UniProt Q12809). The assay can be described thus: primary screen, population patch clamp on CHO cells stably expressing hERG.
Sequence of human ether-à-go-go-related gene (hERG) potassium channel (Q12809 whole entry, looked up): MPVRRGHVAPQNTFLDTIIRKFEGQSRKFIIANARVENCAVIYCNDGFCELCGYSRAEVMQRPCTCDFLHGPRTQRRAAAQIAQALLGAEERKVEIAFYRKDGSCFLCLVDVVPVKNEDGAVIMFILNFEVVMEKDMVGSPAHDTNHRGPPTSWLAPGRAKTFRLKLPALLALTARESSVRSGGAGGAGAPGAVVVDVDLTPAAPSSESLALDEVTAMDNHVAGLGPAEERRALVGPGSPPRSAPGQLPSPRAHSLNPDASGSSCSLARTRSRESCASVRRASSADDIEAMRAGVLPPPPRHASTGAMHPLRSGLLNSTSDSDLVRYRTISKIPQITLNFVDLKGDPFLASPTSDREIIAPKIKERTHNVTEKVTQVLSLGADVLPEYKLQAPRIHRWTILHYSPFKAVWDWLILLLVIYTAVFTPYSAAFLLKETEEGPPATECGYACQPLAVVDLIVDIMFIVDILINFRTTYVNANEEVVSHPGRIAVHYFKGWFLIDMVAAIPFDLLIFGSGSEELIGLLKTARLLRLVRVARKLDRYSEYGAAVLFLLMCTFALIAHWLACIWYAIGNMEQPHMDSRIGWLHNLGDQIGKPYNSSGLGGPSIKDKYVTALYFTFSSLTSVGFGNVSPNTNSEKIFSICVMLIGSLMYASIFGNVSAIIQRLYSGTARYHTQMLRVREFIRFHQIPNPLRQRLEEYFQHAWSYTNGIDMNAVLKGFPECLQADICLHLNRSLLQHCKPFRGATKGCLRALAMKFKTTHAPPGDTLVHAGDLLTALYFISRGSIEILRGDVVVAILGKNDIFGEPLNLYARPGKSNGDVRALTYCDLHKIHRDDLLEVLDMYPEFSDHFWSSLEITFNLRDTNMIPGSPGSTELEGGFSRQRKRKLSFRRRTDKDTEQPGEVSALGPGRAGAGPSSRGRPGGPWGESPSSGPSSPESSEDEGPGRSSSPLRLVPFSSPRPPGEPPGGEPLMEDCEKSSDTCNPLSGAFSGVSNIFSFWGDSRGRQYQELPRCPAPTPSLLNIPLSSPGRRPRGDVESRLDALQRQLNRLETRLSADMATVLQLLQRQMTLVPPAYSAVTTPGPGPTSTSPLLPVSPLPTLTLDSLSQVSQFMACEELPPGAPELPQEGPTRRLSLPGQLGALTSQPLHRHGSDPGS
`O=C(CSc1nc2ncc(Cl)cc2[nH]1)Nc1cccc(F)c1`: the “hERG current change (%, negative = inhibition) at 1uM” value is 17%. For `CC1CC(C)CN(S(=O)(=O)CCNC(=O)c2ccccc2)C1` (stereo not drawn), the “hERG current change (%, negative = inhibition) at 1uM” value came out at 9.67%. Take `Brc1ccc(C2Nc3cccc4cccc(c34)N2)s1`: the “hERG current change (%, negative = inhibition) at 1uM” value came out at 12.8%.

As for `Cc1ccc(OCC(=O)NC(C)c2ccccc2)cc1` (stereo not drawn), the “hERG current change (%, negative = inhibition) at 1uM” value is recorded as 6.34%. Regarding `O=C(Nc1ccc(N2CCOCC2)nc1)c1ccc(F)cc1`, the “hERG current change (%, negative = inhibition) at 1uM” value was 3.3%.

For `CCCCCCSc1cccc(-c2nc3ccc(Cl)cn3c2NCc2ccccc2)c1.O=C(O)C(F)(F)F`, the “hERG current change (%, negative = inhibition) at 1uM” value turned out to be 6.25%. The value for `N#C/C(=C\c1cccc([N+](=O)[O-])c1)c1ccccn1` was 6.88%; that for `COc1ccc(Cl)cc1N1C(=O)C2CCCN2C1c1cccc(F)c1` (stereo not drawn) was -4.49%; that for `CCn1nnnc1SCC(=O)N1CCCc2ccccc21` was 6.42%.

In the case of `NC(=O)NC(Cc1ccccc1)C(=O)N1CCN(S(=O)(=O)c2ccc(Cl)cc2)CC1` (stereo not drawn), the “hERG current change (%, negative = inhibition) at 1uM” value was determined as 7.12%. `CCc1ccc(N2C(=O)C3C4C=CC(CC4)C3C2=O)cc1` (stereo not drawn): the “hERG current change (%, negative = inhibition) at 1uM” value was 13.5%. `O=S(=O)(c1ccc(C2CCCCC2)cc1)N1CCCC1`: the “hERG current change (%, negative = inhibition) at 1uM” value was 17.8%. The figure for `Cc1ccc2c(c1)nnn2C1CCN(S(=O)(=O)c2ccc(C(=O)NC3CCCC3)cc2)CC1` is 12.8%.

As for `COc1ccc(NC(=O)c2ccccc2-c2ccccc2)c(C)c1`, the “hERG current change (%, negative = inhibition) at 1uM” value was 9.07%. The value for `CCN(C(=O)Cc1ccc(NC2=NC3CS(=O)(=O)CC3S2)cc1)c1ccccc1` (stereo not drawn) was 0.874%; that for `COC(=O)c1cc(Br)ccc1-c1ccc(/C=N/n2nnnc2N)o1` was 2.64%.

On to `Fc1ccccc1CN1CCCCCCC1`, for which the “hERG current change (%, negative = inhibition) at 1uM” value is recorded as -6.99%. Consider `O=C(c1ccc(Br)o1)N1CCc2ccccc21`, for which the “hERG current change (%, negative = inhibition) at 1uM” value was 6.62%. The figure for `CCC(=Nc1ccccc1)C1=C(O)CCCC1=O` is 15.8%. The value for `N/C(=N\OS(=O)(=O)c1cccc([N+](=O)[O-])c1)c1ccncc1` was 6.19%; that for `O=C(O)/C=C\C(=O)Nc1cc(O)ccc1[N+](=O)[O-]` was 11.1%. On to `Cc1ccc(C(=O)CCC(=O)OCC(=O)NNC(=O)c2ccc([N+](=O)[O-])cc2)cc1`, for which the “hERG current change (%, negative = inhibition) at 1uM” value was -7.1%. The figure for `COc1cccc(OCC(=O)NNC(=S)Nc2ccc(Cl)cc2Cl)c1` is 10%. The value for `O=C(COc1ccc2c(c1)OCO2)Nc1ccc2c(c1)oc1ccccc12` was 14.7%; that for `COC(=O)CC1C(=O)NCCN1C(=O)CSc1nc2ccccc2c(=O)n1CC(C)C` (stereo not drawn) was 11.6%; that for `CCN1C(=O)C(CC(=O)Nc2ccc(OC)cc2)N(CCc2ccc(OC)cc2)C1=S` (stereo not drawn) was 10.9%. The figure for `O=C(NC1CCN(Cc2ccc(Cl)cc2Cl)CC1)c1ccccc1` is -6.37%; for `N#Cc1ccsc1NC(=O)CN1C(=O)NC2(CCCC2)C1=O` it is 5%. For the compound `Cc1cc(C)c2[nH]c(C(=O)N3CCC(n4nccc4NC(=O)C4CC4)CC3)c(C)c2c1`, the “hERG current change (%, negative = inhibition) at 1uM” value is listed as -2.86%. The value for `O=C(O)CC(CC(=O)Nc1ccc2ccccc2n1)c1ccccc1` (stereo not drawn) was 9.68%; that for `CC(=O)Nc1ccc(S(=O)(=O)Nc2cccc(NC(=O)C(C)(C)C)c2)cc1` was 19.3%; that for `Cc1ccc(C(=O)NNC(=O)c2ccc3ccccc3c2O)cc1` was -4.58%. The figure for `CCCNC(=O)C(Cc1ccccc1)NS(=O)(=O)c1ccc2c(c1)c(=O)n(C)c(=O)n2C` (stereo not drawn) is 3.66%; for `CCC1=[N+](C)CCn2c(C)ccc21.[I-]` it is 19%; for `CC(C)CC(=O)Nc1c2c(nn1-c1cccc(Cl)c1)CS(=O)(=O)C2` it is -12.1%. Turning to `Cc1ccc([N+](=O)[O-])cc1S(=O)(=O)Nc1ccc(OCC(=O)N2CCOCC2)cc1`, the “hERG current change (%, negative = inhibition) at 1uM” value is on record as -6.23%. Consider `CCN(CC)CCn1c2c(c(SCC(=O)Nc3ccc(C(C)C)cc3)nc1=O)CCC2`, for which the “hERG current change (%, negative = inhibition) at 1uM” value was -16.4%.

Regarding `COc1cc(C(Nc2ccc(S(=O)(=O)N3CCC(C)CC3)cc2)C(=O)NCC2CCCO2)cc(OC)c1OC` (stereo not drawn), the “hERG current change (%, negative = inhibition) at 1uM” value is recorded as -2.66%. As for `CC(C)[C@H](Nc1ccc(C(F)(F)F)cc1[N+](=O)[O-])C(=O)O.[Cl-]`, the “hERG current change (%, negative = inhibition) at 1uM” value was 14.3%.

As to `COc1ccc(C)cc1NC(=O)C1CCCN(S(=O)(=O)c2ccc3[nH]c(=O)ccc3c2)C1` (stereo not drawn), the “hERG current change (%, negative = inhibition) at 1uM” value came out at 4.21%. The figure for `Cc1cccc(-n2ncc3c(N(C)C4CCCCC4)ncnc32)c1` is -10.4%; for `Cc1cnc(C)c(N2CCC(C(=O)NC(C)c3cccs3)CC2)n1` (stereo not drawn) it is 2.13%. The value for `CCCCCC(=O)Nc1nnc(CCc2ccccc2)s1` was 8.96%.

Turning to `O=C(O)CSc1ncnc2sc3c(c12)CCC3`, the “hERG current change (%, negative = inhibition) at 1uM” value is recorded as 14.6%. For `O=C(Nc1nn[nH]n1)C12CC3CC(CC(C3)C1)C2`, the “hERG current change (%, negative = inhibition) at 1uM” value was found to be 20.4%.

On to `COc1ccccc1CC1/C(=N/O)C2CCN1CC2.Cl` (stereo not drawn), for which the “hERG current change (%, negative = inhibition) at 1uM” value is recorded as 7.03%. The figure for `COc1cc(-c2ccc3sc(-c4ccsc4)c(C#CCO)c3c2)cc(OC)c1OC` is 18.3%; for `COc1cc(C(=O)O)nc2ccc([N+](=O)[O-])cc12` it is 8.09%; for `Nc1ccc2nc(SCc3ccccc3F)sc2c1` it is 7.88%. The value for `Cc1cc(CNCc2c(C(=O)N(C)Cc3ccccc3)nc3ccccn23)nn1C` was 10.8%; that for `CCOc1cc(C(=S)N2CCCC2)ccc1OCc1ccccc1` was 16%; that for `COc1ccc(N2C(=O)CC(NCC#N)C2=O)cc1` (stereo not drawn) was 6.33%. The figure for `COc1ccc(CNc2nc(-c3ccccc3)nn2C(=O)c2cccs2)cc1` is 4.21%; for `O=c1[nH]c(=O)n(Cc2ccco2)c(O)c1C=NCCCn1ccnc1` it is 11.1%. Consider `COCCCN1C(=O)C(=O)/C(=C(/O)c2ccc(OCC(C)C)cc2C)C1c1cccnc1` (stereo not drawn), for which the “hERG current change (%, negative = inhibition) at 1uM” value is given as -0.684%. The value for `CC(C)CC(NC(N)=O)C(=O)Nc1ccc(Oc2ccccc2)cc1` (stereo not drawn) was 10.6%; that for `Oc1ccccc1N1CCN(C(=S)Nc2ccc(SC(F)F)cc2)CC1` was 11.5%.
